Laboratory results as given in a collection of fitness landscapes (doi:10.1126/science.1257360).
The list shows a part of the results.

B1: PhoQ; a variant is named by its letters at X, in order, P23837 (parent)
chain: MKKLLRLFFPLSLRVRFLLATAAVVLVLSLAYGMVALIGYSVSFDKTTFRLLRGESNLFYTLAKWENNKLHVELPENIDKQSPTMTLIYDENGQLLWAQRDVPWLMKMIQPDWLKSNGFHEIEADVNDTSLLLSGDHSIQQQLQEVREDDDDAEMTHSVAVNVYPATSRMPKLTIVVVDTIPVELKSSYMVWSWFIYVLSANLLLVIPLLWVAAWWSLRPIEALAKEVRELEEHNRELLNPATTRELTSLVRNLNRLLKSERERYDKYRTTLTDLTHSLKTPLXXLQXXLRSLRSEKMSVSDAEPVMLEQISRISQQIGYYLHRASMRGGTLLSRELHPVAPLLDNLTSALNKVYQRKGVNISLDISPEISFVGEQNDFVEVMGNVLDNACKYCLEFVEISARQTDEHLYIVVEDDGPGIPLSKREVIFDRGQRVDTLRPGQGVGLAVAREITEQYEGKIVAGESMLGGARMEVIFGRQHSAPKDE

Variants of: B1
Experiment: enrichment ratio after two sorts for PhoP signalling (ratio (wild type AVST 3.29)); higher = more functional
Details: with PhoP (E. coli)

| Variant | enrichment ratio |
| --- | --- |
| KRCD | ≤ 0.25 |
| AYIS | ≤ 0.25 |
| ISAW | ≤ 0.25 |
| EPYQ | ≤ 0.25 |
| MGEH | ≤ 0.25 |
| KVTS | ≤ 0.25 |
| IQIK | ≤ 0.25 |
| KSTY | ≤ 0.25 |
| GDRP | ≤ 0.25 |
| WLEP | ≤ 0.25 |
| REAI | ≤ 0.25 |
| PHRG | ≤ 0.25 |
| MCST | 3.88 |
| VPDD | ≤ 0.25 |
| IFQG | ≤ 0.25 |
| LCNV | ≤ 0.25 |
| MNQH | ≤ 0.25 |
| GRLA | ≤ 0.25 |
| DPPS | ≤ 0.25 |
| DHVP | ≤ 0.25 |
| WNYG | ≤ 0.25 |
| GHWW | ≤ 0.25 |
| QIAH | ≤ 0.25 |
| ECRF | ≤ 0.25 |

| Variant | enrichment ratio |
| --- | --- |
| RDEV | ≤ 0.25 |
| NWIV | ≤ 0.25 |
| HPNW | ≤ 0.25 |
| NYLR | ≤ 0.25 |
| EVRG | ≤ 0.25 |
| RVAY | ≤ 0.25 |
| IHPD | ≤ 0.25 |
| YMLF | ≤ 0.25 |
| PKKA | ≤ 0.25 |
| GLAK | ≤ 0.25 |
| PLWK | ≤ 0.25 |
| YLSA | 0.253 |
| YELT | 4.19 |
| FVHY | ≤ 0.25 |
| KGIY | ≤ 0.25 |
| IIEF | ≤ 0.25 |
| YQKL | ≤ 0.25 |
| AFAN | ≤ 0.25 |
| QEFD | ≤ 0.25 |
| LLPL | ≤ 0.25 |
| WSVK | ≤ 0.25 |
| VNVV | 1.94 |
| FIRN | ≤ 0.25 |
| TELA | 16.8 |

| Variant | enrichment ratio |
| --- | --- |
| RFRL | ≤ 0.25 |
| RTEC | ≤ 0.25 |
| AFFP | ≤ 0.25 |
| FPIS | ≤ 0.25 |
| HRTG | ≤ 0.25 |
| TWPC | ≤ 0.25 |
| QLYP | ≤ 0.25 |
| IDWH | ≤ 0.25 |
| LTHY | ≤ 0.25 |
| KTPR | ≤ 0.25 |
| WHWQ | ≤ 0.25 |
| VTCN | ≤ 0.25 |
| NLLD | ≤ 0.25 |
| VRRC | ≤ 0.25 |
| MMAT | 5.54 |
| KMVD | ≤ 0.25 |
| EMCH | ≤ 0.25 |
| QKVD | ≤ 0.25 |
| HALM | 14.3 |
| CNLV | ≤ 0.25 |
| GRWQ | ≤ 0.25 |
| LQCR | ≤ 0.25 |
| SYAP | ≤ 0.25 |
| MGGE | ≤ 0.25 |

| Variant | enrichment ratio |
| --- | --- |
| LMPS | ≤ 0.25 |
| RVWG | ≤ 0.25 |
| YYGE | ≤ 0.25 |
| HMIE | ≤ 0.25 |
| TSDY | 5.66 |
| WQAW | ≤ 0.25 |
| MFFK | ≤ 0.25 |
| GMSG | ≤ 0.25 |
| RTSW | ≤ 0.25 |
| SQTD | ≤ 0.25 |
| GDTC | ≤ 0.25 |
| YRGE | ≤ 0.25 |
| VEQN | ≤ 0.25 |
| AMLN | 7.92 |
| FMNF | ≤ 0.25 |
| EVHS | ≤ 0.25 |
| HAYW | ≤ 0.25 |
| LTAC | ≤ 0.25 |
| STDI | ≤ 0.25 |
| ITRK | ≤ 0.25 |
| ILHY | ≤ 0.25 |
| FKGT | ≤ 0.25 |
| DAPV | ≤ 0.25 |
| DFEP | ≤ 0.25 |

| Variant | enrichment ratio |
| --- | --- |
| HLWT | ≤ 0.25 |
| TKRL | ≤ 0.25 |
| RDSM | ≤ 0.25 |
| SKDL | ≤ 0.25 |
| SRVF | ≤ 0.25 |
| RKYH | ≤ 0.25 |
| AGMF | 8.27 |
| PFAH | ≤ 0.25 |
| PYEH | ≤ 0.25 |
| HNTV | ≤ 0.25 |
| WNKP | ≤ 0.25 |
| NRPL | ≤ 0.25 |
| FKDR | ≤ 0.25 |
| MDGM | ≤ 0.25 |
| IFED | ≤ 0.25 |
| PDWG | ≤ 0.25 |
| FQDA | ≤ 0.25 |
| YLFC | ≤ 0.25 |
| KCGA | ≤ 0.25 |
| GARA | ≤ 0.25 |
| EYTW | ≤ 0.25 |
| DHAG | ≤ 0.25 |
| NYRC | ≤ 0.25 |
| GRIR | ≤ 0.25 |

| Variant | enrichment ratio |
| --- | --- |
| HNIG | ≤ 0.25 |
| VLIG | ≤ 0.25 |
| DVAP | ≤ 0.25 |
| NLSG | ≤ 0.25 |
| WGAY | ≤ 0.25 |
| GSMM | 4.61 |
| NYLH | ≤ 0.25 |
| YLPC | ≤ 0.25 |
| PGCP | ≤ 0.25 |
| SFTF | ≤ 0.25 |
| TGDC | ≤ 0.25 |
| QARI | ≤ 0.25 |
| PMKS | ≤ 0.25 |
| VHDR | ≤ 0.25 |
| YIVA | ≤ 0.25 |
| GYLD | ≤ 0.25 |
| IKGN | ≤ 0.25 |
| LNPE | ≤ 0.25 |
| RTQL | ≤ 0.25 |
| EFVP | ≤ 0.25 |
| QQPF | ≤ 0.25 |
| FFVE | ≤ 0.25 |
| IYVE | ≤ 0.25 |
| SEDA | ≤ 0.25 |

| Variant | enrichment ratio |
| --- | --- |
| THER | ≤ 0.25 |
| GDVF | ≤ 0.25 |
| PIRD | ≤ 0.25 |
| RHKF | ≤ 0.25 |
| ESFV | ≤ 0.25 |
| KTQN | ≤ 0.25 |
| KHFV | ≤ 0.25 |
| FDEE | ≤ 0.25 |
| RQYG | ≤ 0.25 |
| MQPL | ≤ 0.25 |
| SNAD | ≤ 0.25 |
| YNQV | 0.278 |
| AYNE | ≤ 0.25 |
| RACS | ≤ 0.25 |
| EGMG | ≤ 0.25 |
| RNHT | ≤ 0.25 |
| REFY | ≤ 0.25 |
| KGKC | ≤ 0.25 |
| CIFP | ≤ 0.25 |
| NVIH | ≤ 0.25 |
| EPLN | ≤ 0.25 |
| RGTK | ≤ 0.25 |
| PVRE | ≤ 0.25 |
| KGRG | ≤ 0.25 |

| Variant | enrichment ratio |
| --- | --- |
| GRVA | ≤ 0.25 |
| DMCR | ≤ 0.25 |
| LQSS | ≤ 0.25 |
| YYKR | ≤ 0.25 |
| EDGR | ≤ 0.25 |
| QDWI | ≤ 0.25 |
| ATSN | 2.52 |
| LMLY | ≤ 0.25 |
| VEQY | ≤ 0.25 |
| KLSS | ≤ 0.25 |
| YRSP | ≤ 0.25 |
| YLIR | ≤ 0.25 |
| YECP | ≤ 0.25 |
| KMRP | ≤ 0.25 |
| MWTY | ≤ 0.25 |
| DEQP | ≤ 0.25 |
| GYTF | ≤ 0.25 |
| WDCW | ≤ 0.25 |
| SELF | 13.1 |
| HFDY | ≤ 0.25 |
| RYFK | ≤ 0.25 |
| RSGY | ≤ 0.25 |
| LNAG | ≤ 0.25 |
| PQKD | ≤ 0.25 |

| Variant | enrichment ratio |
| --- | --- |
| KYLR | ≤ 0.25 |
| FKVT | ≤ 0.25 |
| TNWH | ≤ 0.25 |
| CYIS | ≤ 0.25 |
| TSKE | ≤ 0.25 |
| IKPG | ≤ 0.25 |
| KFRC | ≤ 0.25 |
| HESP | ≤ 0.25 |
| SDIN | 0.748 |
| FNDP | ≤ 0.25 |
| REWI | ≤ 0.25 |
| WDER | ≤ 0.25 |
| RTVP | ≤ 0.25 |
| LEYP | ≤ 0.25 |
| LEYH | ≤ 0.25 |
| INWN | ≤ 0.25 |
| GFDS | ≤ 0.25 |
| WSCQ | ≤ 0.25 |
| TGRK | ≤ 0.25 |
| QNPW | ≤ 0.25 |
| QEST | 1.97 |
| DFSY | ≤ 0.25 |
| EAGR | ≤ 0.25 |
| PMPQ | ≤ 0.25 |

| Variant | enrichment ratio |
| --- | --- |
| MGMQ | 7.94 |
| VGRK | ≤ 0.25 |
| LLCG | ≤ 0.25 |
| PSVV | ≤ 0.25 |
| YVRI | 2.13 |
| SLAF | 8.18 |
| YYLE | ≤ 0.25 |
| RNQI | ≤ 0.25 |
| RIQI | ≤ 0.25 |
| YCYV | ≤ 0.25 |
| VYPA | ≤ 0.25 |
| QAYR | ≤ 0.25 |
| GMTG | ≤ 0.25 |
| ALKW | ≤ 0.25 |
| EDHC | ≤ 0.25 |
| HKAP | ≤ 0.25 |
| NSQA | ≤ 0.25 |
| NSPT | ≤ 0.25 |
| HKIA | ≤ 0.25 |
| GMGL | ≤ 0.25 |
| MDSH | ≤ 0.25 |
| MDIM | 4.77 |
| LDIK | ≤ 0.25 |
| QPIM | ≤ 0.25 |

| Variant | enrichment ratio |
| --- | --- |
| QNPF | ≤ 0.25 |
| RKTW | ≤ 0.25 |
| MEYV | 5.49 |
| FFLE | ≤ 0.25 |
| GWHL | ≤ 0.25 |
| GWEG | ≤ 0.25 |
| SWMC | ≤ 0.25 |
| TYDR | ≤ 0.25 |
| SSRD | ≤ 0.25 |
| NLNK | ≤ 0.25 |
| IHLF | ≤ 0.25 |
| VCEL | ≤ 0.25 |
| RSMY | ≤ 0.25 |
| GSAA | ≤ 0.25 |
| MEGY | 11.2 |
| FYCM | ≤ 0.25 |
| CSIM | ≤ 0.25 |
| AIFR | 2.81 |
| HEGQ | ≤ 0.25 |
| RRYA | ≤ 0.25 |
| MADH | ≤ 0.25 |
| EPST | ≤ 0.25 |
| PSML | ≤ 0.25 |
| INEM | ≤ 0.25 |

| Variant | enrichment ratio |
| --- | --- |
| AHNL | 0.847 |
| FHVF | ≤ 0.25 |
| ASHM | ≤ 0.25 |
| STVM | 16.3 |
| YAVM | ≤ 0.25 |
| EPEF | ≤ 0.25 |
| VVTS | ≤ 0.25 |
| MRWL | ≤ 0.25 |
| FGWR | ≤ 0.25 |
| HEKV | ≤ 0.25 |
| QWVI | ≤ 0.25 |
| TEGI | ≤ 0.25 |
| TDRE | ≤ 0.25 |
| WRQP | ≤ 0.25 |
| GDDS | ≤ 0.25 |
| AEFY | 0.523 |
| PDRE | ≤ 0.25 |
| WTKL | ≤ 0.25 |
| TECF | 9.82 |
| YHSC | ≤ 0.25 |
| DDGQ | ≤ 0.25 |
| HHGH | ≤ 0.25 |
| WSHV | ≤ 0.25 |
| GTTT | ≤ 0.25 |

| Variant | enrichment ratio |
| --- | --- |
| PMNP | ≤ 0.25 |
| FFHF | ≤ 0.25 |
| EKTC | ≤ 0.25 |
| FPDW | ≤ 0.25 |
| DVWL | ≤ 0.25 |
| FCCV | ≤ 0.25 |
| GPVT | ≤ 0.25 |
| PNVT | ≤ 0.25 |
| PKNM | ≤ 0.25 |
| WEKN | ≤ 0.25 |
| NYYR | ≤ 0.25 |
| HIAR | ≤ 0.25 |
| QVCF | ≤ 0.25 |
| DGLV | ≤ 0.25 |
| DHCM | ≤ 0.25 |
| FRIM | ≤ 0.25 |
| SCIN | 0.637 |
| KDYW | ≤ 0.25 |
